Results as given in a compilation of properties of binary mixtures (doi:10.1016/j.molliq.2016.02.091).
The densities may have been worked out from excess volumes.

Assay: xn = mol fraction of the nth substance listed
Settings: 101 kPa

CC[n+]1ccn(C)c1.COS(=O)(=O)[O-] + CCC(=O)O
mass density [kg/m3]
Settings | x2 = 0 | x2 = 0.1332 | x2 = 0.2478 | x2 = 0.4345 | x2 = 0.5804 | x2 = 0.6975 | x2 = 0.7935 | x2 = 0.8737 | x2 = 0.9417 | x2 = 0.9719
298.15 K | 1286 | 1272.2 | 1257.1 | 1224.5 | 1192.6 | 1160.2 | 1125.1 | 1084.8 | 1038.9 | –
303.15 K | 1282.5 | 1269 | 1253.7 | 1221.1 | 1188.8 | 1155.9 | 1120.6 | 1080.4 | 1034.6 | 1009.4
308.15 K | 1279.1 | 1265.9 | 1250.4 | 1217.7 | 1185 | 1151.5 | 1116 | 1076.1 | 1030.3 | 1004.8
313.15 K | 1275.7 | 1262.8 | 1247.1 | 1214 | 1181 | 1147.6 | 1112 | 1071.5 | 1025.1 | –

CCC(=O)O + CC[n+]1ccn(C)c1.COS(=O)(=O)[O-]
x1 = 1
Settings | mass density [kg/m3]
303.15 K | 982.8
308.15 K | 977.5

CC(=O)O + CC[n+]1ccn(C)c1.COS(=O)(=O)[O-]
x1 = 1
Settings | mass density [kg/m3]
298.15 K | 1044
303.15 K | 1038.3
308.15 K | 1032.7
313.15 K | 1027

CC[n+]1ccn(C)c1.COS(=O)(=O)[O-] + CC(=O)O
mass density [kg/m3]
Settings | x2 = 0 | x2 = 0.1669 | x2 = 0.3003 | x2 = 0.5004 | x2 = 0.6432 | x2 = 0.7503 | x2 = 0.8336 | x2 = 0.9001 | x2 = 0.9546 | x2 = 0.9783
298.15 K | 1286 | 1274.8 | 1263.3 | 1238.2 | 1213.2 | 1188.6 | – | 1130.6 | 1091.3 | –
303.15 K | 1282.5 | 1271.7 | 1259.7 | 1234.7 | – | 1184.1 | – | 1126.3 | – | 1063.8
308.15 K | 1279.1 | – | 1256 | 1231 | 1204.9 | 1179.6 | 1153 | 1121.6 | 1082.1 | 1058.7
313.15 K | 1275.7 | 1265.4 | 1252.5 | – | 1200.8 | 1175.1 | 1148.6 | 1117.5 | 1077.7 | 1053.8
